Laboratory results reported in ChEMBL document CHEMBL4888484, “Replenishing the malaria drug discovery pipeline: Screening and hit evaluation of the MMV Hit Generation Library 1 (HGL1) against asexual blood stage Plasmodium falciparum ,using a nano luciferase reporter read-out” (2022).
Screen size: about 150,000 compounds; about 540 (0.36%) showed an effect of 50% or more. This is one part of the list.

Tested on: Plasmodium falciparum
Test: Primary screen in NF54 nanoGlo assay, in single point, at 2uM, 72h; a lower Z score goes with more inhibition
Format: functional, Erythrocyte
Details: timepoint 72 hour

Row | Structure (SMILES) | % Inhibition [%] | Z score
1 | Cn1nc(C(=O)Nc2nnc(CC3CCCCC3)s2)ccc1=O | -7 | 0.88
2 | Nc1ccnc(CNC2CCCCC2C(F)(F)F)n1 (stereo unspecified) | -4 | 0.64
3 | COC[C@@H]1[C@H](NS(=O)(=O)c2c(C)cccc2Cl)[C@H]2CCO[C@H]21 | -6 | 1.09
4 | Cc1nc(-c2ccco2)ccc1C(=O)N1CCOCC1(C)C | -8 | 1.55
5 | CNc1ccnc(N[C@H]2CCN(Cc3ccccc3)C2)n1 | 20 | -2.51
6 | COc1cccc(OCCOC(=O)Nc2ccc(Cl)c(Cl)c2)c1 | -1 | 0.15
7 | CC1CCN(S(=O)(=O)c2ccc(CNC(=O)c3cccc(Cl)c3)s2)CC1 | -9 | 0.89
8 | CCOC(=O)c1n[nH]c2c1COC2(C)C | -17 | 2.38
9 | COC(=O)C(C)(C)NC(=O)c1ccncc1 | -8 | 1.6
10 | CN1CC2(CCN(Cc3cn(C)c4ccccc34)CC2)C[C@H]1C(=O)N1CCOCC1 | -5 | 0.98
11 | O=C(NC[C@@](O)(c1cccs1)C1CC1)Nc1ccccc1C(F)(F)F | 6 | -0.98
12 | COc1ccc(N2C(=O)N[C@@H](CC(=O)N3CCOCC3)C2=O)cc1 | 3 | -0.36
13 | O=C(CC1CCCCC1)NC1CCN(CCN2CCOC2=O)CC1 | -5 | 0.99
14 | COC(=O)c1cccc(C(=O)N2CCCC3(CCCCCC3)C2)n1 | 35 | -3.9
15 | CCc1cnccc1[C@H](C)NC(=O)Cc1ccnc(OC)c1 | 7 | -0.92
16 | C#CCN(Cc1cccc(C)n1)C(=O)C(C)(C)c1ccc(OC)cc1 | -7 | 0.96
17 | Cc1ccc(C)c([C@@H](NC(=O)c2cc3ncccn3n2)c2cccnc2)c1 | 12 | -1.66
18 | CCc1nsc(NC2CCOC(c3cnn(C)c3)C2)n1 (stereo unspecified) | -14 | 1.86
19 | COc1nc2c(cc1C(=O)NCCc1cnn[nH]1)C(=O)N(C1CCCC1)C2 | -10 | 1.79
20 | COCC(=O)Nc1ccc(N(C)C)c(CN(Cc2ccco2)C(=O)C(C)(C)C)c1 | -3 | 0.55
21 | CCCC[C@H]1C(=O)N(C)CCN1C(=O)NCc1nn(CC)c2ccccc12 | 2 | -0.39

Row | Structure (SMILES) | % Inhibition [%] | Z score
22 | Cc1c(-c2nnc(-c3ccco3)o2)oc2ccccc12 | 10 | -1.07
23 | CC(=O)Oc1ccc(N2C(=O)C3C(Cc4c[nH]c5ccccc45)NC4(C(=O)Nc5c4ccc(C)c5C)C3C2=O)cc1 (stereo unspecified) | -14 | 1.83
24 | CCCn1c(=O)n(CCC(=O)N2CCN(S(=O)(=O)N3CC(C)OC(C)C3)CC2)c2ccccc21 (stereo unspecified) | -9 | 1.16
25 | COc1cccc(OC)c1OCc1nc(CN(CC(C)C)C(=O)c2ccccc2F)cs1 | -19 | 1.85
26 | Cc1cccc(NC(=O)c2ccc(Nc3ccnc(-c4ccc(F)cc4)n3)cc2)c1 | -10 | 0.9
27 | CN1CCN(Cc2nc(-c3ccoc3)no2)c2ccccc21 | -8 | 0.88
28 | Cc1cccc(-c2ncc(C(=O)N3CCCCC3)c(N(C)C3CCCCC3)n2)c1 | -12 | 1.12
29 | CC1=CC[C@H]2CN(Cc3cccc(OCCO)c3)C[C@H]2C1 | -8 | 1.48
30 | O=S(=O)(CCn1cc(-c2coc(-c3ccccc3)n2)nn1)N1CCCC1 | 3 | -0.57
31 | O=C(C[C@H]1CCC2(CCOCC2)CO1)NCC1(CO)CCCC1 | -7 | 0.74
32 | CCc1cnc(C)nc1NC1CCN(C(=O)Nc2ccccc2)CC1 | -13 | 2.02
33 | Cn1cccc1C(=O)C(=O)N1CCN(Cc2ccc3c(c2)OCO3)CC1 | -17 | 1.61
34 | CC1(C(=O)N[C@H]2c3ccccc3C[C@@H]2O)CCC(=O)NC1 (stereo partly specified) | -12 | 1.47
35 | Cc1cccc(C(=O)N2CCc3cc(CNS(=O)(=O)c4ccc(C)c(C)c4)ccc32)c1 | -2 | 0.24
36 | O=C(N[C@H]1CCN(c2ccc3nncn3n2)C1)OCCCc1cnc2ncnn2c1 | -3 | 0.41
37 | CCN(CCCNS(C)(=O)=O)c1ccc(C)cc1 | -20 | 1.72
38 | CC(C)(C)n1ncc2c(=O)[nH]c(N3CCCCCCC3)nc21 | 1 | -0.07
39 | Cc1nc(NC(=O)NCc2cnn(CCF)c2)nn1C | -8 | 0.86
40 | CCc1nnc(-c2ccc3ccn(CC(=O)N4CCN(c5ccccc5)CC4)c3c2)o1 | -3 | 0.41
41 | COc1ccc(-n2nc(C)c3c(N4CCCN(C(=O)CC(C)C)CC4)nc(C4CC4)nc32)cc1 | -10 | 1.47
42 | COC[C@@]12CCN(C(=O)COc3ccccc3)C[C@@H]1CN(S(C)(=O)=O)C2 | -14 | 1.68

Row | Structure (SMILES) | % Inhibition [%] | Z score
43 | O=C(NCCc1ccncc1)c1ccc(OCC(=O)N2CCCCC2)cc1 | -4 | 0.75
44 | Cc1ccc(C(=O)N(C)CCc2noc(-c3cc4cc(Cl)ccc4[nH]3)n2)cc1F | -7 | 1.3
45 | COc1ccc(OC)c(CNC(=O)c2ccc3c(c2)C(=O)N(Cc2ccncc2)C3=O)c1 | 0 | 0.08
46 | C=Cc1ccc(Cn2cnc3onc(C)c3c2=O)cc1 | -8 | 1.13
47 | Cc1ccccc1-n1nc(C(=O)N2CCCCCC2)nc1-c1ccccc1 | -13 | 2.54
48 | O=C(Nc1nncs1)NC(C1CC1)C1CC1 | 33 | -4.8
49 | O=C(N[C@H]1CCCN(Cc2cccc(O)c2)C1)c1cncnc1 | -18 | 1.61
50 | O=C1O[C@H]2CN(c3ncccc3Cl)C[C@H]2N1C1CCCC1 | -19 | 2.4
51 | CN(C)CCNC(=O)Cn1c(-c2ccccc2)nn(-c2ccc(Cl)cc2)c1=O | -2 | 0.37
52 | CC(=O)N(C)CC(=O)OCCc1scnc1C | 2 | -0.45
53 | O=C(COc1ccc2c(c1)OCO2)N1CCN(C(=O)c2ccco2)CC1 | -15 | 2.79
54 | CCCc1nnc(NC[C@@H]2C[C@H](CO)N(C)[C@@H]2c2ccccc2F)o1 | -15 | 1.57
55 | COCc1cn([C@@H]2CC[C@H]3CCOc4ccccc4C(=O)N4CCN(Cc5ccc(Cl)c(F)c5)C[C@H]4C(=O)NC[C@H]2O3)nn1 | -7 | 0.9
56 | Cc1nc(Cc2noc(CC3(O)CCCCC3)n2)no1 | 6 | -0.7
57 | COc1cc(C)ccc1CN[C@H]1CCC1(OC)OC | 3 | -0.4
58 | CC(C)c1nc(Cn2ccnc2[C@H]2CCOC2)cs1 | -1 | 0.17
59 | COc1ccc(-n2nc3nc(N4CCN(CCN(C)C)CC4)nc(-c4cccc(F)c4F)c3c2N)cc1 | 7 | -0.86
60 | Cc1ccc([C@@H](O)CS(=O)(=O)Cc2c(C)noc2C)cc1C | -1 | 0.09
61 | COC1(C)CN(C(=O)[C@H]2C[C@@H]2c2cccc(Cl)c2)C1 | -12 | 2.3
62 | Cc1cnn(Cc2ccc(Cl)cc2)c1NC(=O)NCC1(C)COC1 | -10 | 1.06
63 | Cn1cc(S(=O)(=O)N2C[C@H]3CCC(=O)c4cccc2c43)cn1 | 1 | -0.11

Row | Structure (SMILES) | % Inhibition [%] | Z score
64 | Cc1nc(C)c(C(=O)NCC2CCN(c3cnsn3)CC2)o1 | -5 | 0.78
65 | CN(C(=O)CCC(F)(F)F)[C@H]1CC(=O)N(Cc2ccccc2)C1=O | -5 | 0.6
66 | O=C(CCN1CCc2sccc2C1)Nc1cccnc1 | -9 | 1.12
67 | CC(=O)c1ccc(NC(=O)Cn2nc(C(=O)N3CCOCC3)cc2C)cc1 | -4 | 0.61
68 | COc1c(C)cc(C(=O)[C@H]2CCCN(Cc3nc4ccccc4n3C)C2)cc1C | -23 | 2.03
69 | Cc1cc(C(=O)NCCc2ccc3c(c2)OCO3)c(C)[nH]1 | -11 | 2.06
70 | CC1=CCCC(C)C1CNCC(O)c1ccncc1 (stereo unspecified) | 2 | -0.25
71 | CC1CC(C)C(C(=O)NS(=O)(=O)c2ccc3ccccc3c2F)O1 (stereo unspecified) | -6 | 1.04
72 | COc1cc(CN(C)CCC2CCOCC2)ccc1OC[C@@H](O)CN1CCCCCCC1 | -4 | 0.77
73 | O=C(Nc1cccc(C(F)(F)F)c1)[C@@H]1COCC(=O)N1Cc1ccccc1 | 0 | 0.05
74 | CN(Cc1cccc(F)c1)C(=O)Cn1cnc2c1c(=O)n(C)c(=O)n2C | -9 | 0.74
75 | COc1ccccc1CCNC(=O)N(Cc1ccccn1)C[C@@H]1CCC(=O)N1 | -1 | 0.12
76 | Cc1[nH]c(=O)c(C#N)cc1C(=O)NCc1cccnc1Oc1ccccc1F | -10 | 1.26
77 | Cc1ccc(-c2nnc(-c3nc(NCc4ccc(F)cc4)c4ccccc4n3)o2)cc1 | -11 | 2.05
78 | Cn1cnc(CCNC(=O)OC[C@H]2CCCO2)c1Br | 3 | -0.48
79 | O=C(N1CCCC1)N1CC[C@@]2(O)CCN(Cc3cccc4ncccc34)C[C@H]2C1 | -6 | 0.93
80 | Nc1ccc(F)cc1NC(=O)c1coc(-c2ccccc2)n1 | -10 | 1.7
81 | N#Cc1c2n(c(=O)n(C[C@H](O)COCc3ccco3)c1=O)CCC2 | -2 | 0.23
82 | CN(C(=O)NCCc1csc(C(C)(C)C)n1)[C@H]1CCCNCC1 | 10 | -1.29
83 | COc1cccc(CC(=O)N2CCc3nc(N4CCC(C)CC4)nc(Oc4ccccc4OC)c3C2)c1 | 27 | -5.15
